# In the supplement of paper PMC8728848:
# This is one part of the list.
# B1: Cohesin-hDCIR (Homo sapiens) (protein)
# chain: LDDLDAVRIKVDTVNAKPGDTVRIPVRFSGIPSKGIANCDFVYSYDPNVLEIIEIEPGDIIVDPNPDKSFDTAVYPDRKIIVFLFAEDSGTGAYAITKDGVFATIVAKVKEGAPNGLSVIKFVEVGGFANNDLVEQKTQFFDGGANVGDTTEPATPTTPVTTPTTTDDLDAASQKYSQLLEKKTTKELVHTTLECVKKNMPVEETAWSCCPKNWKSFSSNCYFISTESASWQDSEKDCARMEAHLLVINTQEEQDFIFQNLQEESAYFVGLSDPEGQRHWQWVDQTPYNESSTFWHPREPSDPNERCVVLNFRKSPKRWGWNDVNCLGPQRSVCEMMKIHLHHHHHH
# Experiments:
# Assay in all cases: glycan array binding signal (z-score within array); higher = stronger binding
# Conditions in all cases: glycan notation: IUPAC condensed, linker removed
# [1] = biological target: Gal(b1-2)Gal
# Procedure, shortened: (§1)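 Arrays were curated from the Consortium for Functional Glycomics database, 3228 in total, and kept only where the protein sequence was available. Binding is expressed as a within-array Z-score. This score was averaged across arrays of the same protein sequence at different concentrations or buffers and across linkers, and negative values can be read as non-binding.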
# [2] = biological target: Gal(b1-3)Gal
# Procedure, shortened: as §1
# [3] = biological target: Gal(b1-3)Gal(b1-4)GlcNAc
# Procedure, shortened: as §1
# [4] = biological target: Gal(b1-3)GalNAc
# Procedure, shortened: as §1
# [5] = biological target: Gal(b1-3)GalNAc(a1-3)[Fuc(a1-2)]Gal(b1-4)Glc
# Procedure, shortened: as §1
# [6] = biological target: Gal(b1-3)GalNAc(a1-3)[Fuc(a1-2)]Gal(b1-4)GlcNAc
# Procedure, shortened: as §1
# [7] = biological target: Gal(b1-3)GalNAc(b1-3)Gal
# Procedure, shortened: as §1
# [8] = biological target: Gal(b1-3)GalNAc(b1-3)Gal(a1-4)Gal(b1-4)Glc
# Procedure, shortened: as §1
# [9] = biological target: Gal(b1-3)GalNAc(b1-4)Gal(b1-4)Glc
# Procedure, shortened: as §1
# [10] = biological target: Gal(b1-3)GalNAc(b1-4)[Neu5Ac(a2-3)]Gal(b1-4)Glc
# Procedure, shortened: as §1
# [11] = biological target: Gal(b1-3)GlcNAc
# Procedure, shortened: as §1
# [12] = biological target: Gal(b1-3)GlcNAc(a1-3)Gal(b1-4)GlcNAc
# Procedure, shortened: as §1
# [13] = biological target: Gal(b1-3)GlcNAc(a1-6)Gal(b1-4)GlcNAc
# Procedure, shortened: as §1
# [14] = biological target: Gal(b1-3)GlcNAc(b1-2)Man
# Procedure, shortened: as §1
# [15] = biological target: Gal(b1-3)GlcNAc(b1-2)Man(a1-3)[Gal(b1-3)GlcNAc(b1-2)Man(a1-6)]Man(b1-4)GlcNAc(b1-4)GlcNAc
# Procedure, shortened: as §1
# [16] = biological target: Gal(b1-3)GlcNAc(b1-2)Man(a1-3)[Gal(b1-3)GlcNAc(b1-2)Man(a1-6)]Man(b1-4)GlcNAc(b1-4)[Fuc(a1-6)]GlcNAc
# Procedure, shortened: as §1
# [17] = biological target: Gal(b1-3)GlcNAc(b1-2)Man(a1-3)[GlcNAc(b1-4)][Gal(b1-3)GlcNAc(b1-2)Man(a1-6)]Man(b1-4)GlcNAc(b1-4)GlcNAc
# Procedure, shortened: as §1
# [18] = biological target: Gal(b1-3)GlcNAc(b1-2)[Gal(b1-3)GlcNAc(b1-6)]Man(a1-6)[Gal(b1-3)GlcNAc(b1-2)Man(a1-3)]Man(b1-4)GlcNAc(b1-4)GlcNAc
# Procedure, shortened: as §1
# [19] = biological target: Gal(b1-3)GlcNAc(b1-3)Gal(b1-3)GlcNAc
# Procedure, shortened: as §1
# [20] = biological target: Gal(b1-3)GlcNAc(b1-3)Gal(b1-4)Glc
# Procedure, shortened: as §1
# [21] = biological target: Gal(b1-3)GlcNAc(b1-3)Gal(b1-4)GlcNAc
# Procedure, shortened: as §1
# [22] = biological target: Gal(b1-3)GlcNAc(b1-3)Gal(b1-4)GlcNAc(b1-2)Man(a1-3)[Gal(b1-3)GlcNAc(b1-3)Gal(b1-4)GlcNAc(b1-2)Man(a1-6)]Man(b1-4)GlcNAc(b1-4)GlcNAc
# Procedure, shortened: as §1
# [23] = biological target: Gal(b1-3)GlcNAc(b1-3)Gal(b1-4)GlcNAc(b1-2)[Gal(b1-3)GlcNAc(b1-3)Gal(b1-4)GlcNAc(b1-6)]Man(a1-6)[Gal(b1-3)GlcNAc(b1-3)Gal(b1-4)GlcNAc(b1-2)Man(a1-3)]Man(b1-4)GlcNAc(b1-4)[Fuc(a1-6)]GlcNAc
# Procedure, shortened: as §1
# [24] = biological target: Gal(b1-3)GlcNAc(b1-3)Gal(b1-4)GlcNAc(b1-3)Gal(b1-4)GlcNAc(b1-2)[Gal(b1-3)GlcNAc(b1-3)Gal(b1-4)GlcNAc(b1-3)Gal(b1-4)GlcNAc(b1-6)]Man(a1-6)[Gal(b1-3)GlcNAc(b1-3)Gal(b1-4)GlcNAc(b1-3)Gal(b1-4)GlcNAc(b1-2)Man(a1-3)]Man(b1-4)GlcNAc(b1-4)[Fuc(a1-6)]GlcNAc
# Procedure, shortened: as §1
# [25] = biological target: Gal(b1-3)GlcNAc(b1-3)Gal(b1-4)GlcNAc(b1-6)[Gal(b1-3)GlcNAc(b1-3)]Gal(b1-4)Glc
# Procedure, shortened: as §1
# [26] = biological target: Gal(b1-3)GlcNAc(b1-3)Gal(b1-4)[Fuc(a1-3)]GlcNAc
# Procedure, shortened: as §1
# [27] = biological target: Gal(b1-3)GlcNAc(b1-3)Gal(b1-4)[Fuc(a1-3)]GlcNAc(b1-6)[Gal(b1-3)GlcNAc(b1-3)]Gal(b1-4)Glc
# Procedure, shortened: as §1
# [28] = biological target: Gal(b1-3)GlcNAc(b1-3)GalNAc
# Procedure, shortened: as §1
# [29] = biological target: Gal(b1-3)GlcNAc(b1-6)Gal(b1-4)GlcNAc
# Procedure, shortened: as §1
# [30] = biological target: Gal(b1-3)GlcNAc(b1-6)GalNAc
# Procedure, shortened: as §1
# [31] = biological target: Gal(b1-3)GlcNAc(b1-6)[Gal(b1-3)]GalNAc
# Procedure, shortened: as §1
# [32] = biological target: Gal(b1-3)GlcNAc6S
# Procedure, shortened: as §1
# [33] = biological target: Gal(b1-3)[Fuc(a1-4)]GlcNAc
# Procedure, shortened: as §1
# [34] = biological target: Gal(b1-3)[Fuc(a1-4)]GlcNAc(b1-2)Man
# Procedure, shortened: as §1
# [35] = biological target: Gal(b1-3)[Fuc(a1-4)]GlcNAc(b1-2)Man(a1-3)[Gal(b1-3)[Fuc(a1-4)]GlcNAc(b1-2)Man(a1-6)]Man(b1-4)GlcNAc(b1-4)[Fuc(a1-6)]GlcNAc
# Procedure, shortened: as §1
# [36] = biological target: Gal(b1-3)[Fuc(a1-4)]GlcNAc(b1-3)Gal(b1-3)[Fuc(a1-4)]GlcNAc
# Procedure, shortened: as §1
# [37] = biological target: Gal(b1-3)[Fuc(a1-4)]GlcNAc(b1-3)Gal(b1-4)[Fuc(a1-3)]GlcNAc
# Procedure, shortened: as §1
binder,measurement,setting,value
B1,glycan array binding signal (z-score),[1],1.61
same,glycan array binding signal (z-score),[2],-0.617
same,glycan array binding signal (z-score),[3],-0.471
same,glycan array binding signal (z-score),[4],-0.564
same,glycan array binding signal (z-score),[5],-0.417
same,glycan array binding signal (z-score),[6],-0.285
same,glycan array binding signal (z-score),[7],0.283
same,glycan array binding signal (z-score),[8],-0.002
same,glycan array binding signal (z-score),[9],-0.444
same,glycan array binding signal (z-score),[10],-0.315
same,glycan array binding signal (z-score),[11],-0.094
same,glycan array binding signal (z-score),[12],-0.6
same,glycan array binding signal (z-score),[13],0.327
same,glycan array binding signal (z-score),[14],-0.472
same,glycan array binding signal (z-score),[15],-0.055
same,glycan array binding signal (z-score),[16],-0.088
same,glycan array binding signal (z-score),[17],0.109
same,glycan array binding signal (z-score),[18],-0.003
same,glycan array binding signal (z-score),[19],0.078
same,glycan array binding signal (z-score),[20],-0.668
same,glycan array binding signal (z-score),[21],-0.518
same,glycan array binding signal (z-score),[22],-0.035
same,glycan array binding signal (z-score),[23],-0.519
same,glycan array binding signal (z-score),[24],-0.252
same,glycan array binding signal (z-score),[25],-0.561
same,glycan array binding signal (z-score),[26],-0.243
same,glycan array binding signal (z-score),[27],-0.655
same,glycan array binding signal (z-score),[28],-0.648
same,glycan array binding signal (z-score),[29],0.159
same,glycan array binding signal (z-score),[30],1.36
same,glycan array binding signal (z-score),[31],-0.586
same,glycan array binding signal (z-score),[32],-0.559
same,glycan array binding signal (z-score),[33],-0.107
same,glycan array binding signal (z-score),[34],-0.501
same,glycan array binding signal (z-score),[35],-0.243
same,glycan array binding signal (z-score),[36],-0.386
same,glycan array binding signal (z-score),[37],-0.415
